Reference: PubChem BioAssay AID624296 (National Center for Advancing Translational Sciences (NCATS), 2012)
Screen size: about 350,000 compounds; about 9,900 (2.8%) were called active. Inconclusive means that the source gave no clear call. Such entries were picked first, then a sample of the others. Calls follow the shape of the dose curve; as a rule, active = well fitted activation curve with a large enough effect; inconclusive = small, poorly fitted or top-dose-only effect; inactive = no such curve, though single readings can be large or run the other way. Potencies of inconclusive entries are left out as doubtful fits.

assay: A quantitative high throughput screen for small molecules that induce DNA re-replication in MCF 10a normal breast cells.; also: nearly all actives have a fitted effect of over 50% in size; settings: MCF 10A DNA re-replication, Hoechst nuclear intensity, 48 h; series mostly up to 46.1 µM
Potency is read from the fitted curve at half-maximal effect; tags tell the direction and shape of the fitted curve.

Compound | Potency
CCN(CC(=O)NCc1ccc(F)cc1)CC(=O)NC1CCCC1 | inactive
Cn1nc(CC(=O)NC2CCCCCCCCCCC2)c2ccccc2c1=O | inactive
CCc1ccc(OCC2c3cc(OC)c(OC)cc3CCN2C(=S)NC)cc1 (stereo not given) | inconclusive [activator, single point]
CCn1c(=O)c(C(C)=O)nc2ccccc21 | inactive
Cc1oc2ccc(Br)cc2c(=O)c1-c1nn[nH]n1 | inconclusive [activator, partial curve, poor fit]
CCOc1c(CNCCNC(=O)c2nonc2N)cccc1OC | inactive
CN(C)CCNC(=O)c1cc2c(s1)-c1ccc(Cl)cc1SC2 | active: 20.6 µM
CC(C)Nc1nc(Cl)nc(N(C#N)CN2C(=O)c3ccccc3S2(=O)=O)n1 | inconclusive [activator, single point]
Cc1cc(C)c(C(=O)O)c(CC(C)(C)C(=O)O)c1 | inconclusive [activator, partial curve, poor fit]
CCOC(=O)Cc1nnc(NC(=O)CSc2nnc3c4ccccc4n(C)c3n2)s1 | inconclusive [activator, full curve, poor fit]
CN(C(=O)CSc1nc2ccc(Br)cc2c(=O)n1Cc1ccco1)C1CCS(=O)(=O)C1 (stereo not given) | inconclusive [activator, single point]
CC(C)N(C(=O)Cn1c(SCC(=O)NCc2ccc3c(c2)OCO3)nc2ccccc21)C(C)C | inconclusive [activator, partial curve, poor fit]
O=C(NC1CC1)c1cccc(NC(=O)C2CC2)c1 | inconclusive [activator, full curve, poor fit]
Cn1nc(-c2ccc(Cl)cc2)c2cc(C(=O)NCC3CCCO3)sc21 (stereo not given) | inconclusive [activator, partial curve, poor fit]
Cc1cccc(C)c1NC(=S)N(C)CCc1ccccn1 | inactive
Cc1ccc(-n2sc3ccccc3c2=O)cc1S(=O)(=O)N1CCCCC1 | active: 16.4 µM
Cc1occc1C(=O)Nc1nnc(-c2cccs2)s1 | inconclusive [activator, single point]
CCOC(=O)NC(=S)Nc1ccc(C(C)(C)C)cc1Br | inconclusive [activator, single point]
COc1ccc(N(C(=O)C(C)C)S(=O)(=O)c2ccc3c(c2)n(C)c(=O)n3C)cc1 | inconclusive [activator, partial curve, poor fit]
COc1ccc(-c2cc(-c3ccccc3)nc(SC(C)C(=O)O)c2C#N)cc1 (stereo not given) | inconclusive [activator, single point]
C=CCn1c(N)c(C(=O)Nc2ccccc2OC)sc1=S | inactive
Cc1ccccc1NS(=O)(=O)c1ccc(C(=O)NCC(C)(C)N2CCOCC2)cc1 | inconclusive [activator, single point]
N#Cc1nc(COc2ccc(Cl)cc2)oc1N1CCCCCC1 | inactive
Cc1oc(-c2ccccc2)nc1C(=O)OCC(=O)NCc1ccc(Cl)cc1 | inconclusive [activator, single point]

Compound | Potency
N/C(=N\OC(=O)c1cc(Br)ccc1Cl)c1ccccn1 | inconclusive [activator, single point]
CCC1=C/C(=C/N(C)c2ccccc2)C(=O)S1 | inconclusive [activator, single point]
O=Cc1ccccc1-n1cncn1 | inactive
COC(=O)c1ccccc1NC1=C/C(=N\S(=O)(=O)c2ccc(C(=O)O)cc2)c2ccccc2C1=O | inconclusive [activator, partial curve]
N#Cc1c(-c2ccc(F)cc2)nc(-c2ccccc2)[nH]c1=O | inconclusive [activator, single point]
O=C(CNC(=O)c1ccccc1Br)N/N=C/c1ccco1 | inactive
CC(C)(CNC(=O)c1ccc(S(=O)(=O)Nc2ccc(Cl)cc2)cc1)N1CCOCC1 | inconclusive [activator, full curve, poor fit]
CCOc1ccc(-c2cc(CCCC(=O)Nc3cccc(OC)c3)no2)cc1 | inconclusive [activator, partial curve, poor fit]
COc1ccc(CCNC(=O)C2CC2)cc1OC | inconclusive [activator, partial curve, poor fit]
O=C(C[n+]1ccc2ccccc2c1)Nc1cc(C(F)(F)F)ccc1Cl | inactive
O=C(c1ccc(Cl)c(S(=O)(=O)Nc2ccc(F)cc2)c1)N1CCN(c2ccccn2)CC1 | inconclusive [activator, full curve, poor fit]
O=C(COC(=O)c1cccc(OC(F)F)c1)NC1CCCC1 | inconclusive [activator, partial curve, poor fit]
COc1cc(C(=O)NCCOc2cc(C)ccc2C(C)C)cc(OC)c1OC | inconclusive [activator, single point]
COc1ccc(NC(=O)COC(=O)c2ccc3c(c2)OCO3)c(OC)c1 | inconclusive [activator, single point]
O=S(=O)(c1ccc(S(=O)(=O)N(Cc2ccc(F)cc2)C2CCCC2)cc1)N1CCCC1 | inconclusive [activator, full curve, poor fit]
COc1cc(OC)cc(C(=O)Nn2cc(C(=O)Nc3ccccc3F)c3ccccc3c2=O)c1 | inconclusive [activator, single point]
COc1ccc(C2CC(c3ccc4ccccc4c3OC(C)=O)=NN2C(C)=O)cc1 (stereo not given) | inconclusive [activator, single point]
O=C(O)C1(c2ccccc2)CCN(S(=O)(=O)c2cccc(Cl)c2)CC1 | inactive
COc1cccc(CNS(=O)(=O)c2c(C)[nH]c(C)c2C(=O)N2CCCCC2)c1 | inactive
CN1CCCC(OC(=O)c2ccc(C(C)(C)C)cc2)C1 (stereo not given) | inconclusive [activator, full curve, poor fit]
NC1=NC(=O)/C(=C/c2ccc(-c3ccc(S(N)(=O)=O)cc3)o2)S1 | inactive
CCOC(=O)C1CCCN(Cc2cc(Br)c(OC)cc2OC)C1 (stereo not given) | inactive
CC1CCCCC1NC(=O)COC(=O)c1ccccn1 (stereo not given) | inconclusive [activator, full curve, poor fit]
O=C(N/N=C/c1cc(Br)c(O)c(Br)c1)c1cc2c(ccc3ccccc32)o1 | active: 8.2 µM

Compound | Potency
CCCCCCNC1=NCCS1 | inactive
CCc1ccnc(NS(=O)(=O)c2ccc3c(c2)CCO3)c1 | inactive
Cc1cc(F)ccc1N1CCC(N2CCN(C)C(CCO)C2)CC1 (stereo not given) | inconclusive [activator, partial curve]
Cc1nn(C)cc1CN(C)C(=O)c1nn2c(c1Cl)NC(c1cccs1)CC2C(F)(F)F (stereo not given) | inconclusive [activator, partial curve, poor fit]
O=S(=O)(Cc1ccc(Cl)cc1)Oc1ccc(Cl)cc1 | inconclusive [activator, single point]
CCc1ccc(C(=O)Nc2ccc3c(c2)n(C)c(=O)n3C)cc1 | inconclusive [activator, single point]
CCc1ccc(OCC(=O)NC(NC(=S)Nc2ccccc2OC)C(Cl)(Cl)Cl)cc1 (stereo not given) | inconclusive [activator, single point]
NCC(O)COc1ccc2c(c1)OCO2 (stereo not given) | inactive
C[C@H](CO)N1C[C@H](C)[C@@H](CN(C)C(=O)Nc2ccc3c(c2)OCO3)Oc2c(NC(=O)Nc3ccc4c(c3)OCO4)cccc2C1=O | inconclusive [activator, full curve, poor fit]
COc1ccc(NC(=O)NNC(=O)COc2ccc([N+](=O)[O-])c(C)c2)cc1OC | inactive
c1csc(-c2nc3c4ccccc4c4ccccc4c3[nH]2)c1 | inconclusive [activator, single point]
COc1ccc(CCN(C)CC(=O)Nc2ccc(F)c(Cl)c2)cc1OC | inactive
CCCCOc1ccc(C(=O)OC(C)CN(C)C)cc1 (stereo not given) | inconclusive [activator, single point]
COc1ccccc1C(=O)OCCc1ccccc1 | inactive
O=C(O)/C=C\C(=O)Nc1ccccc1C(=O)NCc1ccccc1 | inconclusive [activator, partial curve, poor fit]
Cc1ccc(S(=O)(=O)N2CCCC(C(=O)NCCCN3CCCCC3C)C2)cc1 (stereo not given) | inconclusive [activator, partial curve, poor fit]
O=C(/C=C/c1ccco1)N1CCC(Cc2ccccc2)CC1 | inconclusive [activator, single point]
CCOc1ccc(N2C(=O)/C(=C/c3ccc(C)o3)N(C)C2=S)cc1 | inconclusive [activator, single point]
CCOC(=O)c1c(C)[nH]c(C)c1C(=O)COC(=O)c1cc2ccccc2cc1O | inconclusive [activator, single point]
O=c1c2cccnc2n(-c2ccccc2)n1Cc1ccc(Cl)cc1 | inconclusive [activator, single point]
CC(=O)Nc1ccccc1C | inconclusive [activator, partial curve, poor fit]
Cc1ccc(-c2ccc(S(=O)(=O)N3CCN(C)CC3)cc2)cc1 | inactive
